PubChem BioAssay AID488969 (Vanderbilt High Throughput Screening Facility, 2010)
In all, about 110,000 compounds were measured (“z-score”: median about -0.1, highest 2% from about 2 on). The list shows a part of the results. Calls of active or inactive are those of the source.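 How the source made its calls: active means z-score in the third read window above 3 or below -3; inactive means the rest.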

What follows are compounds tested against Metabotropic glutamate receptor 8 (Rattus norvegicus) (UniProt P70579) (assay: mGluR8 Gi/Go-coupled signaling modulation – cell-based, rat, thallium flux, HTS, primary screen (AID 488969)). Conditions: HEK293 rat mGluR8, GIRK (G protein-gated inwardly rectifying potassium channel) thallium flux, FluoZin2; at 10 µM; stronger effect = higher value; submaximal glutamate (EC20) added with thallium.
Sequence of UniProt P70579 (P70579 whole entry, looked up): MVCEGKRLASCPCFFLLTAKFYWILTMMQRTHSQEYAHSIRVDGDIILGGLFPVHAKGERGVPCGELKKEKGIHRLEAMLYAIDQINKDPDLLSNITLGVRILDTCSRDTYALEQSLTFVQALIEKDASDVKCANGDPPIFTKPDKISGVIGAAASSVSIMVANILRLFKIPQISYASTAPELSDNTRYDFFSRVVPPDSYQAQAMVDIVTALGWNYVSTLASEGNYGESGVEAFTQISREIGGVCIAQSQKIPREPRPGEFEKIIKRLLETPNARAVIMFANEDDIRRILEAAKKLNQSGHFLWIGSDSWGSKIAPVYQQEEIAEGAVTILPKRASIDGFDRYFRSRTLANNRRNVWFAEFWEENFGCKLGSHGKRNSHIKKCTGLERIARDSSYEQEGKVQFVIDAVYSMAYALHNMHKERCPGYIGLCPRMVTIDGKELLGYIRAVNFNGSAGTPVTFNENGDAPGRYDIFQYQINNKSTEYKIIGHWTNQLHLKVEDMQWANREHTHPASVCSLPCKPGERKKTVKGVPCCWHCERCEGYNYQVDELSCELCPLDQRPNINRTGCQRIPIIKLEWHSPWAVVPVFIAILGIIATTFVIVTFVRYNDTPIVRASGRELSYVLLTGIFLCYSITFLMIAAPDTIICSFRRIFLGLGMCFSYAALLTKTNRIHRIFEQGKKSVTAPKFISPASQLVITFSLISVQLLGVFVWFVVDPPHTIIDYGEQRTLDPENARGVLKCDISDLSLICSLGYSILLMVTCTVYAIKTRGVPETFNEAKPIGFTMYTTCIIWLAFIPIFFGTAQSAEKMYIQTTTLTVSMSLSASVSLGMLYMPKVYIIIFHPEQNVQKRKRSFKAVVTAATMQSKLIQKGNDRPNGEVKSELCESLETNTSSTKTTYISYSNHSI

Structure (SMILES)	z-score
CCOC(=O)c1cc(OCC(=O)NC(C)C(C)C)cc(C(=O)OCC)c1 (configuration not stated)	-0.0698
CCC(=O)n1nc(-c2cccnc2)nc1NCc1ccc(OC)cc1	active: -5.08
Cn1c(=O)c2c(ncn2CC(=O)OCC(=O)NCc2ccc(Cl)cc2)n(C)c1=O	0.353
CCCSC1=C(C#N)C(c2ccccc2OCC)CC(=O)N1 (configuration not stated)	-0.352
N#Cc1c(-c2ccccc2)c(-c2ccccc2)nn(CC(=O)NNC(=O)Nc2ccccc2)c1=O	-0.197
Cc1nn(-c2ncc(C(F)(F)F)cc2Cl)c(=O)n1-c1cccc(Cl)c1	0.00217
CC1=NN(c2ccccc2)C(=O)C1C(=O)c1ccccc1 (configuration not stated)	-0.168
O=c1cc(CO)oc(C(Nc2ccccn2)c2ccccc2F)c1O (configuration not stated)	-0.416
Cc1cc2c(c(C)nn2-c2ccccc2)c(=O)o1	-0.468
CCN(CC)Cc1c(O)ccc2occ(C(=O)c3ccc(OC)cc3)c12	0.745
Cc1ccc(C(=O)COC(=O)C2CC(=O)N(c3nc(-c4ccccc4)cs3)C2)cc1 (configuration not stated)	0.0531
Clc1ccc(-n2ncc3c(NCc4ccc5c(c4)OCO5)ncnc32)cc1	-0.426
Cc1ccccc1NC(=O)c1cccc(N2C(=O)C3C4CCC(C4)C3C2=O)c1 (configuration not stated)	-0.0474
CN1C(=O)CS(=O)c2ccc(C(=O)NCCC3=CCCCC3)cc21 (configuration not stated)	-0.266
Cc1cc(S(=O)(=O)N(Cc2ccc3c(c2)OCO3)CC2CCCO2)ccc1-n1cnnn1 (configuration not stated)	-0.688
CCOC(=O)C1(S(=O)(=O)c2ccccc2)CCN(Cc2ccc(Cl)cc2)CC1	-0.772
CCCCNC(=O)CCCCCNS(=O)(=O)c1ccc(OC)cc1	1.14
CCOC(=O)c1c(-c2ccco2)csc1NC(=O)CSc1nnc(N)s1	-0.759
Cc1cc(C(=O)NCCc2ccccc2)ccc1[N+](=O)[O-]	-0.203
CCCn1c(SCC(=O)N2c3ccccc3CC2C)nnc1-c1ccco1 (configuration not stated)	-1.44
CC(=O)c1ccc(-n2c(C)ccc2-c2ccccc2)cc1	-0.0353
Cc1ccc(O)c(NC(=O)c2cccc(S(=O)(=O)N3CCCCC3)c2)c1	0.437
Cc1noc(C)c1C(=O)N1CCCc2ccccc21	-0.353
CCCCOC(=O)NC1(C)CCS(=O)(=O)C1 (configuration not stated)	0.0533

Structure (SMILES)	z-score
O=C(OCc1cc2ccccc2[nH]c1=O)C1CCCCC1	-0.512
Cc1cc(C)cc(C(=O)NCC(=O)OCC(=O)N2c3ccccc3NC(=O)C2(C)C)c1	-0.138
COc1ccccc1NC(=O)C(O)C(O)C(=O)Nc1ccccc1OC (configuration not stated)	-0.417
COc1ccc(NC(=O)C2CCC(=O)N2)cc1 (configuration not stated)	0.126
COc1ccccc1OCCOCCOc1ccccc1Cl	-0.228
CC(c1cccs1)N(Cc1ccco1)C(=O)Nc1ccc(Cl)c(Cl)c1 (configuration not stated)	-0.405
CCOC(=O)C1=C(C)Nc2nc(SCc3cccnc3)nn2C1c1ccc(OC)cc1 (configuration not stated)	0.463
CS(=O)(=O)Nc1ccccc1C(=O)N1CCN(c2ccccc2)CC1	-0.0801
CCCCN(CCCC)C(=O)CN(C)S(=O)(=O)c1ccc2c(c1)n(C)c(=O)c(=O)n2C	-2.39
Cc1cc(CN2C(=O)c3ccccc3C2=O)no1	0.104
CCn1c(-c2nn(C)cc2Cl)n[nH]c1=S	0.00751
CCc1nc2ccccc2c(C(=O)OC2CCOC2=O)c1C (configuration not stated)	-0.649
Cc1ccc(NC(=S)NC(NC(=O)Cc2cccc3ccccc23)C(Cl)(Cl)Cl)cc1 (configuration not stated)	0.354
O=C(OCc1ccccc1)/C(=C/c1ccc(Cl)cc1)NC(=O)c1ccccc1Cl	-0.0992
COC(=O)c1ccc(CNC(=O)CSc2nnc(COc3ccccc3)n2C)o1	0.148
CCOC(=O)Cc1ccc(NS(=O)(=O)c2ccc(SC)cc2)cc1	-0.503
CCc1nc(Nc2ccccc2)c2oc3ccccc3c2n1	-0.244
O=C(CSc1ccc2ccccc2c1)Nn1cnnc1	0.232
Cc1cccc(NC2=NC(=S)N(CC#N)C23CCCCC3)c1	1.02
CCOC(=O)c1sc(C)c2c1NC(C)(c1cccc3ccccc13)NC2=O (configuration not stated)	-0.155
Cc1ccc(-c2nc3ccccc3o2)cc1NC(=S)NC(=O)c1cc2ccccc2o1	2.35
COC(=O)C(Cc1ccccc1)NC(=O)CSc1nc(N)cc(=O)[nH]1 (configuration not stated)	-0.425
CC(=O)c1ccc(NC(=O)C(=O)c2cn(CC(=O)N3CCCCC3)c3ccccc23)cc1	-0.0286
Cc1ccc(C)c(NC(=O)c2cnn3ccccc23)c1	-0.0235

Structure (SMILES)	z-score
C/C(=N\O)C(=O)NCc1ccccn1	-0.159
COc1ccc(CC(=O)NCc2ccco2)cc1OC	-0.0499
O=C(CCC(=O)N/N=C/c1ccc(Br)s1)NCc1ccccc1	-0.0306
Cc1ccc(N(CC(=O)Nc2cc(C)cc(C)c2)S(=O)(=O)c2cccc3nonc23)cc1	-0.19
COC(=O)c1c(NS(=O)(=O)c2ccc(C)cc2)sc2c1CCC(C)C2 (configuration not stated)	active: 7.28
Nc1c(C(=O)NCc2ccc3c(c2)OCO3)nnn1-c1ccc(OC(F)(F)F)cc1	-0.241
Cc1ccc(C)c(S(=O)(=O)NCc2ccc(C(=O)N3CCC(Cc4ccccc4)CC3)cc2)c1	-0.171
Cc1cccc(C(=O)NC2CCN(C(=O)N3CCOCC3)CC2)c1	0.0214
CC(=O)NNc1nc2ccccc2s1	0.441
N#C/C(=C\c1cn(-c2ccccc2)nc1-c1cccnc1)c1nnc2n1CCCCC2	0.0661
CCOC(=O)N1CCN(C(=O)c2ccc(Cl)c(S(=O)(=O)Nc3ccccc3)c2)CC1	-0.348
CCOc1ccc(/C=C\C(C)=N\O)cc1	-0.142
COC(=O)CCc1c(C)[nH]c(C(=O)OCc2ccccc2)c1C	-1.62
Nc1cccnc1Sc1cc(Cl)c(Cl)cc1Cl	-0.499
O=C(CCn1nc(-c2ccc(Cl)cc2)c2ccccc2c1=O)NCC1CCCO1 (configuration not stated)	-0.0681
O=C1CSC(c2ccco2)N1 (configuration not stated)	0.051
N#CCCN(CCC#N)c1nnc(-c2ccccc2)s1	-0.146
Cc1ccc2[nH]c(=O)c(CNC(C)(C)C)cc2c1	-0.199
CCOC(=O)CNS(=O)(=O)CCN1C(=O)c2ccccc2C1=O	-0.0472
CCCc1cn(S(=O)(=O)c2ccc(OC)cc2OC)nc1N	-0.264
CS(=O)(=O)n1nc(OC(=O)c2cccc3ccccc23)cc1N	-0.66
COCCN1CCN(c2c3c(nc4cc(-c5cccc(F)c5)nn24)CCC3)CC1	-1.72
CCc1ccccc1NC(=O)C1C(c2ccccc2)C1(Cl)Cl (configuration not stated)	-0.843
O=C1CC(SCCc2nc3ccccc3[nH]2)C(=O)N1c1ccc(F)c(Cl)c1 (configuration not stated)	-0.231
